# About 14,000 (4.5%) of roughly 310,000 compounds showed an effect of 50% or more. The effect is printed as a negative number. Some of the results follow.
# Target: human ether-à-go-go-related gene (hERG) potassium channel (human, UniProt Q12809)
# Assay: primary screen, population patch clamp on CHO cells stably expressing hERG
# 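Note: peak tail current of the secondary pulse compared with the same well before compound.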
# Sequence of human ether-à-go-go-related gene (hERG) potassium channel (Q12809 whole entry, looked up): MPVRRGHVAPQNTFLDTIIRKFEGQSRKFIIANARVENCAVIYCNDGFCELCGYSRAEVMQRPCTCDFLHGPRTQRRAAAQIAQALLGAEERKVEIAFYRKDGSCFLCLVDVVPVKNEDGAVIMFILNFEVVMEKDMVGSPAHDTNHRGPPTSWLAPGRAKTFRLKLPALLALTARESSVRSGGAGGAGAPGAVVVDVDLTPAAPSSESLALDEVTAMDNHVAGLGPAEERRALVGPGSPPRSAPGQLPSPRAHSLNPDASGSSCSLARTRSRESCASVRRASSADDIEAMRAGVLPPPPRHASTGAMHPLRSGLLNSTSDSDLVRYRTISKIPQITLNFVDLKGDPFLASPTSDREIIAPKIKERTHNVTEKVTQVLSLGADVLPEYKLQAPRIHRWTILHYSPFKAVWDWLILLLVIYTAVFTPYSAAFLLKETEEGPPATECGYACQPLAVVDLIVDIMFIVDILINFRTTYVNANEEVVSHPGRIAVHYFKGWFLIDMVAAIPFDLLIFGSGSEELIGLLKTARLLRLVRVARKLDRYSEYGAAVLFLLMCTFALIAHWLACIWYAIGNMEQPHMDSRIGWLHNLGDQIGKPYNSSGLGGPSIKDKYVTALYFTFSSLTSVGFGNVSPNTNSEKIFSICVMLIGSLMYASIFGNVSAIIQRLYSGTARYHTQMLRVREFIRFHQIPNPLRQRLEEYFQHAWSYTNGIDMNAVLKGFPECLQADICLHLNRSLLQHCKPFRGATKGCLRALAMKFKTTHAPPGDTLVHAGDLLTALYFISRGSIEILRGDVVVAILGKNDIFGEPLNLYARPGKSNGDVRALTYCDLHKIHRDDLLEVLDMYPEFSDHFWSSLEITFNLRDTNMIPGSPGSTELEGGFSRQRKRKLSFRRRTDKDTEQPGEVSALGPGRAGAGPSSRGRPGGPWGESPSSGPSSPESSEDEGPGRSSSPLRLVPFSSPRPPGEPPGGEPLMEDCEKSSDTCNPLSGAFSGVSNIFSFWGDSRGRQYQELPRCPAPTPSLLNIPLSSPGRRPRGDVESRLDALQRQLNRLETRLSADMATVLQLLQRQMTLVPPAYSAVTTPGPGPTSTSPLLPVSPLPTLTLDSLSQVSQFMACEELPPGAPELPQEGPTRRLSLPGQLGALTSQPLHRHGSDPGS
row,SMILES,"hERG current change (%, negative = inhibition) at 10uM [%]"
1,O=C(CN1CCN(c2cccc(C(F)(F)F)c2)CC1)N(C1CC1)C1CCS(=O)(=O)C1 (stereo not shown),-29.2
2,COc1cccc(-c2nnn(CC(=O)N3CCCCC3)n2)c1,4.75
3,NC(=O)CC(NC(=O)c1ccc(Br)cc1)c1ccc(N2CCN(c3ccc(F)cc3)CC2)c([N+](=O)[O-])c1 (stereo not shown),6.16
4,CN1CC(C(=O)c2ccc(F)cc2)C(c2ccc(F)cc2)C1 (stereo not shown),-30.2
5,CN(C)c1nc2c(c(=O)[nH]c(=O)n2C)n1Cc1ccc(F)cc1,-2.28
6,COC(=O)[C@H](Cc1ccccc1)NC(=O)NCc1ccccc1,2.31
7,COc1ccc(/C=C/C(=O)Nc2ccc(C(N)=O)cc2)cc1OC,12.2
8,Cn1c(CNC(=O)CCNC(=O)c2ccc(F)c(F)c2)cc(=O)n(C)c1=O,-4.8
9,O=C1CN(C(=O)COC(=O)Cc2ccccc2)c2ccccc2N1,12.5
10,O=C(c1cc2nc(-c3ccco3)cc(C(F)(F)F)n2n1)N1CCN(c2ccc(F)cc2)CC1,-34.5
11,CCc1ccc(CN(C)Cc2nc(COc3ccccc3)no2)nc1,-11.4
12,Cc1ccc(Nc2cnn(C34CC5CC(CC(CC(=O)O)(C5)C3)C4)c(=O)c2Cl)cc1,12
13,CC(=O)c1cccc(NC(=O)C(Sc2ncnc3ccccc23)c2ccccc2)c1 (stereo not shown),-25.8
14,COc1ccc(-c2nc(C)c(C(C)=O)n2O)cc1[N+](=O)[O-],8.82
15,[O-]/[N+](=C/c1ccc(F)cc1)c1ccccc1,2.75
16,COCCN1C(=O)N[C@@H](c2ccc(Br)cc2)C(C(=O)OC)=C1C,-31.9
17,COc1ccc(/C=C2\SC(=S)N(CC(=O)NNC(=O)c3ccncc3)C2=O)cc1,15
18,CC1=C(/C=C/C(=O)O)C(C)(C)CCC1,15.3
19,N#Cc1nc(-c2ccco2)oc1NCCCN1CCOCC1,-54.9
20,NC(=O)COc1ccc(C2c3c(oc4ccccc4c3=O)C(=O)N2CC2CCCO2)cc1 (stereo not shown),-18
21,CCN(Cc1ccccc1)C(=O)CN1C(=O)COc2ccc(S(=O)(=O)NC3CCCC3)cc21,-54.2
22,COc1cccc(NC(=O)c2cc(OC)c(OC)c(OC)c2Br)c1,11.4

row,SMILES,"hERG current change (%, negative = inhibition) at 10uM [%]"
1,O=C(N/N=C/c1ccc(N2CCOCC2)o1)c1ccccc1[N+](=O)[O-],12.9
2,C=CCc1cccc(OC)c1OCCOCCNCCO.O=C(O)C(=O)O,1.46
3,CCNC(=O)N1CCNC(=O)C1CC(=O)Nc1ccc(C(=O)OCC)cc1 (stereo not shown),5.52
4,CCOC(=O)c1sc(NC(=O)CSc2nnc(Cc3ccccc3)o2)c(C(=O)OCC)c1C,9.46
5,COc1ccc(NC(=S)N(Cc2ccc(C(=O)O)cc2)Cc2ccc(OC)c(OC)c2)cc1,28.8
6,Cc1cc(C(=O)Nc2ccccc2[N+](=O)[O-])cs1,-19.5
7,CNC(=O)c1sc(-c2ccccc2)nc1C,5.39
8,CC(C)(C)c1ccc(OC(=O)c2ccc(-n3cncn3)nc2)cc1,16
9,O=C(CN(Cc1ccc(Br)cc1)S(=O)(=O)c1ccccc1)NCc1ccncc1,-68.8
10,CC1(C)CC(NC(=O)c2cccc([N+](=O)[O-])c2)CC(C)(C)N1,24.2
11,CC1(C)CN(S(=O)(=O)OCC(Cl)(Cl)Cl)C(=O)N1,3.14
12,CC(=O)N(Cc1cccc(Br)c1)c1ccc(N2CCOCC2)c(Cl)c1,-26.3
13,CC(C)Nc1nc(-c2cccnc2)nc(-c2ccccc2)c1C#N,0.0862
14,CCc1ccc(OCC(=O)NCCN(C)C)c(Br)c1,-58.4
15,Cc1cc(F)ccc1N1CCC(N2CCN(CCC(C)C)C(CCO)C2)CC1 (stereo not shown),-63.5
16,O=C1C2ON(c3ccccc3)C(c3cccnc3)C2C(=O)N1c1ccccc1 (stereo not shown),18.1
17,O=C(Nc1ccc(C(=O)Oc2ccccc2)c(O)c1)c1ccccc1,21.7
18,CC(C)(C)OC(=O)NCCc1nnc(SCC(=O)c2ccc(Cl)cc2)o1,1.1
19,O=C(Cn1nc(Cc2cccnc2)c2ccccc2c1=O)Nc1ccc2c(c1)OCO2,-41.1
20,COc1ccc(NC(=O)c2cnc(SC)n2-c2ccc(F)cc2)c(OC)c1,-8.28
21,CC(=O)c1ccccc1NC(=O)COC(=O)c1cc2ccccc2[nH]1,5.41
22,COc1ccc(CNC(=O)C2CC(c3ccc(F)cc3)=NO2)cc1 (stereo not shown),-7.35

row,SMILES,"hERG current change (%, negative = inhibition) at 10uM [%]"
1,Cn1c(N)c(C(=O)COC(=O)CCc2c[nH]c3ccccc23)c(=O)n(C)c1=O,12.8
2,CN(Cc1cccc(F)c1)C(=O)Cc1ccc(S(=O)(=O)N2CCOCC2)s1,-28.1
3,Cc1ccc(NC(=O)C(=O)Nc2ccc(C)cn2)nc1,-4.27
4,CC1=C(C(=O)Nc2ccccc2C(F)(F)F)C(c2ccc(C)s2)NC(=S)N1 (stereo not shown),-15.1
5,Cc1cc([N+](=O)[O-])nn1CC(=O)Nc1ccc(F)cc1,6.31
6,COc1ccccc1NC(=O)C1CCCCC1,-4.47
7,Cl.NC1=NC(c2ccccc2C(F)(F)F)N(c2ccc(F)c(Cl)c2)C(N)=N1 (stereo not shown),16.4
8,O=[N+]([O-])c1ccc(N/N=C/c2c[nH]c3ccccc23)c(S(=O)(=O)Nc2ccc(Cl)cc2)c1,-3.58
9,CCc1ccc(C(=O)COC(=O)c2ccc(-c3nnc(-c4ccccc4)o3)cc2)cc1,9.62
10,CCN1C(=O)C2CCCCN2c2ccc(C(=O)NCCOC)cc21 (stereo not shown),12.7
11,O=C(CSCc1c(F)cccc1Cl)Nc1ccccc1C(=O)N1CCOCC1,5.4
12,O=C(Cc1nnc(NC(=O)Nc2ccccc2F)s1)NCc1ccccc1,8.98
13,CCOc1ccccc1NC(=S)N1CCC(NC(=O)c2ccco2)CC1,2.86
14,CCN(CC)CCCN(Cc1cc2cc3c(cc2[nH]c1=O)OCO3)C(=S)NCc1ccco1,-38.2
15,Cc1nnc(NC(=O)C2CCN(S(=O)(=O)c3ccc(Cl)cc3)CC2)s1,14.8
16,COC(=O)[C@@H](NC(=O)NCc1ccco1)C(C)C,2.75
17,O=C(CCCn1c(=O)c2sccc2n(CC(=O)OCc2ccccc2)c1=O)NCc1ccco1,-30.4
18,Cc1cccn2cc(-c3ccccc3)nc12,-4.67
19,COc1ccc(OC)c(NC(=O)c2ccc(-c3csc(C)n3)cc2)c1,7
20,COc1cccc(NC(=O)Nc2nnc(N3C(C)CCCC3C)s2)c1 (stereo not shown),24.9
21,O=C1CCCC2=C1C(c1cccs1)n1nc(SCc3ccccc3)nc1N2 (stereo not shown),-4.83
22,O=C(c1cccnc1)C1CCCN(Cc2nc(-c3cnccn3)no2)C1 (stereo not shown),-6.56

row,SMILES,"hERG current change (%, negative = inhibition) at 10uM [%]"
1,COC(=O)Cc1ccc(NC(=S)NN2CCOCC2)cc1,-4.04
2,CC1(C)CC(=O)CC(C)(C)N1OC(=O)c1ccccn1,0.264
3,CCOC(=O)Cn1c(C)nc2c(C(=O)OCC)sc(C)c2c1=O,-5
4,COc1cccc(/C=N/NC(=O)CSc2ccccc2C)c1OC,11.2
5,O=C(CCS(=O)(=O)c1ccc(Cl)cc1)NCCN1C(=O)S/C(=C\c2ccccc2F)C1=O,13.9
6,CC(C)C(=O)Nc1cccc(C(=O)Nc2ccccc2C(=O)O)c1,9.21
7,O=C(NC(Cc1c[nH]c2ccccc12)C(=O)Nc1ccc(F)cc1)c1cccs1 (stereo not shown),-23.8
8,Cc1c(C(N)=O)sc2ncn(CC(=O)N3CCC(C)CC3)c(=O)c12,0.551
9,COc1ccc(Cl)cc1C(=O)NNC(=O)c1nc2nc(C)cc(C)n2n1,9.73
10,COc1ccc(CCNC(=O)CSCc2ccc([N+](=O)[O-])cc2)cc1,-44.8
11,Cn1cccc1Cc1nnc(SCC(=O)Nc2ccccc2F)n1CCc1ccccc1,-29.7
12,O=C(Nc1ccc(Cl)c(Cl)c1)Nc1ccon1,23.8
13,CCN(CC(=O)c1c(N)n(C)c(=O)n(C)c1=O)c1cccc2ccccc12,3.07
14,O=C(Nc1ccc(F)cc1F)C1CCCN1S(=O)(=O)c1cccc2nsnc12 (stereo not shown),-15.8
15,CC1=NN(C(=O)CCc2ccccc2)C(c2ccccc2)C1 (stereo not shown),-5.19
16,CCCNC(=O)N1CCN(S(C)(=O)=O)CC1,4.94
17,CCOC(=O)c1sc(=S)n(CC)c1NC(=O)c1ccccc1,8.71
18,CC(C)COC(=O)Nc1ccccc1C(=O)N1CCOCC1,9.75
19,COc1ccccc1OCC(=O)n1cc(C(=O)c2cc(Cl)cc(Cl)c2O)cn1,13.1
20,CC(C)n1c(SCC(=O)N2CCCC2)nc2c1c(=O)n(C)c(=O)n2C,-5.03
21,CCOc1cc(-c2nnn(CC(=O)N3CCCCC3)n2)ccc1OC,25.5
22,CCCS(=O)(=O)N1CCCC(C(=O)NCCN2CCCCC2C)C1 (stereo not shown),7.72
